Holding throughout (assay): co-IP; endogenous proteins from nuclear extract of Drosophila embryos; extract treated with DNase I and RNase before immunoprecipitation; affinity-purified rabbit antibodies, preimmune serum or IgG as control; western blot
Test [1] addresses T1, ENY2 (Drosophila (endogenous in embryos)) (UniProt Q9VYX1).
T1 sequence: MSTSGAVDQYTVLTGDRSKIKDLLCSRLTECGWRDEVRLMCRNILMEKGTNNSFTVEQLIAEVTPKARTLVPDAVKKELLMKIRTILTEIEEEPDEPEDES

The target of test [2] is T2, Nonstop (Drosophila (endogenous in embryos)) (UniProt Q9VVR1).
T2 sequence: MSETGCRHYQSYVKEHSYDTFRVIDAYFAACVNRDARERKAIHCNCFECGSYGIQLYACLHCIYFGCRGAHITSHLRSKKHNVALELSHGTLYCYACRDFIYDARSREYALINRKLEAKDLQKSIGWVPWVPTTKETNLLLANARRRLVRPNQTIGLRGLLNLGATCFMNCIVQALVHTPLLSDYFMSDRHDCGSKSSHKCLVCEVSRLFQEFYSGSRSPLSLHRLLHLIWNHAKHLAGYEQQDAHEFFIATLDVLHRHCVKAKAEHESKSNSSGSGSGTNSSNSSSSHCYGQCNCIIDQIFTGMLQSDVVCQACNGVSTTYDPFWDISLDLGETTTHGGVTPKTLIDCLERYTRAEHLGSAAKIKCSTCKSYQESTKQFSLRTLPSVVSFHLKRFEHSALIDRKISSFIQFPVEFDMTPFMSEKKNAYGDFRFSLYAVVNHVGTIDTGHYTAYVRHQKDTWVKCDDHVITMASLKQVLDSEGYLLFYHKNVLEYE

For test [3], the target named is T3, Sgf11 (Drosophila (endogenous in embryos)) (UniProt Q9VVR6).
T3 sequence: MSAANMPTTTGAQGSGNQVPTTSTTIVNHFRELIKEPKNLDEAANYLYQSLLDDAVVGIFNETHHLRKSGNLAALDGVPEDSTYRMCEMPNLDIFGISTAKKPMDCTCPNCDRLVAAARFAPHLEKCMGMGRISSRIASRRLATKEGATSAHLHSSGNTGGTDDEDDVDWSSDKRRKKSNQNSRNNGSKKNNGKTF

No constants are given. Whether binding was seen depends on the method and setting. In cells and extracts the contact can be indirect. Some binding calls cover weakened binding; strength is not graded here.

B1: cap-binding protein 80 (Cbp80) (protein, UniProt Q7K4N3 1-800)
chain: MSRRRAHDTEDEGYDHRRNKRRRVSENQEIEDRLESLILRVGERSTSSVESNLEGLVSVLEADLGTFRLKILRILSDCAVRMPEKCTVYTTLVGLLNAKNYKFGGEFVDHMVKTFKESLKMCRWDAARYSLRFLADLVNCHVISATSLLQLLDTMIDVSNEDTVPQVRRDWFVFAVLSTLPWVGRDLYEKKESALESLLLRIEVYLNKRSKKHHNALRVWSSDAPHPQEEYLDCLWAQIRKLRQDNWAEKHIPRPYLVFDSILCEALQHNLPTIVPPPHHDNFEYPMPWVVYRMFDYTDCPDGPNLPGAHSIERFLIEEHLHHIIETYHHERKDCAAQLLSFPYKHKIPLEYCIVEVVFAELFHMPTPRYLDICYGSILIELCKLQPATLPQVLAQATEILFMRIDSMNTSCFDRFVNWFSYHLSNFKFTWSWDEWDSCLLLDGEHPRPKFIQEVLQKCLRLSYHQRITEMMPTTYAKLIPLTPVPNYKYANEEAANLPGTTVAHQLVVAIRQKCTPEEVVNILKDIPNSGYSGEEMSDGSFNALKIDVFVQTLLNLGSKSFSHSFAAISKFHSVFRALAETEEAQICILHNIFELWSSHQQMMVVLIDKLLKLQIVDCSAVATWIFSKEMTGEFTKLYLWEILHLTIKKMNKHVIKLNTELSEAKEKLAKADSSSSDSEDDSSHKRKKPITHADKPSEEVVERMEEKLEAANVNQKRLFLIVFQRFIMILSEHLLRSDTDGRDPDTDWYRWTIGRLQQVFLMHHEQVQKYSSTLETLLFTSDLDTHILEVFQQFVALRA
Regarding B1, the binding result is “no binding” in test [1], “no binding” in test [2] and “binds” in test [3].

These data come from article PMC3510517.
